Reference: PubChem BioAssay AID686978 (National Center for Advancing Translational Sciences (NCATS), 2013)
Values joined by “and” are separate entries in the source; they are usually repeats but may differ in a detail not shown here. Equal values may be shown once. Screen size: about 420,000 compounds; about 64,000 (15%) were called active. This list was built around the results that the source calls inconclusive (neither active nor inactive); the mix of calls is not that of the screen. The call rests on the fitted dose curve; in most records, active means well fitted inhibition curve with a large enough effect; inconclusive means small, poorly fitted or top-dose-only effect; inactive means flat fitted curve, though single readings scatter. Where the call is inconclusive, the potency comes from a doubtful curve fit.

Experiment: qHTS for Inhibitors of human tyrosyl-DNA phosphodiesterase 1 (TDP1): qHTS in cells in absence of CPT; further: nearly all actives have a fitted effect of over 55% in size
Conditions: DT40 Tdp1-/- hTDP1 cells, no CPT, ATP luminescence, 48 h; activity change, negative = growth inhibition: at 46.2 µM (top of the series) unless noted
Method in brief: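 A cellular qHTS used chicken DT40 cells lacking endogenous Tdp1 but carrying stably transfected human TDP1. Compounds were applied without camptothecin, and cell growth kinetics were judged by ATP-dependent luminescence after ≥48 hr.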
On the % scale 0 is the no-effect control and ±100 the full control effect; potency means the concentration at half of the fitted maximal effect; tags describe the fitted curve by direction and shape.

| SMILES | Potency | activity change, negative = growth inhibition |
| --- | --- | --- |
| C#CC1(O)CCCC2C3CCC4CC(OC(C)=O)CCC4(C)C3C(=O)CC21C (stereo not given) | active: 20.6 µM | – |
| O=C(NNC(=S)NCc1ccco1)c1ccc(Cl)s1 | inconclusive: 14.6 µM [inhibitor, single point] | – |
| Cc1ccccc1NC(=S)NC(=O)/C=C/c1ccco1 | – | inactive: -12.2% |
| O=C(NCc1ccccc1)C(c1ccc(C(F)(F)F)cc1)n1c(=O)c(-c2ccco2)nc2ccccc21 (stereo not given) | active: 20.6 µM | – |
| Cc1cnc2ccccc2c1/C=C/c1ccc(N)cc1 | inconclusive: 35.5 µM [inhibitor, single point] | – |
| CCc1noc(C)c1C(=O)Nc1nnc(C(CC)CC)s1 | – | inactive: 3.72% |
| CSCCC(C(=O)Nc1c(C)cccc1C)N(Cc1ccccc1)Cc1ccccc1 (stereo not given) | inconclusive: 25.9 µM [inhibitor, single point] | – |
| COc1cc(-c2noc(C)c2-c2ccc3[nH]ccc3c2)cc(OC)c1OC | active: 891 nM and active: 1.84 µM | – |
| COc1ccc2[nH]c(O)c(N=NC(=O)Cc3cccs3)c2c1 | inconclusive: 14.6 µM [inhibitor, partial curve] | – |
| O=c1[nH]c2ccc(NS(=O)(=O)c3ccc(Cl)cc3)cc2[nH]1 | – | inactive: -10.8% |
| Cc1cc(C)cc(OCCNC(=O)c2cc(S(=O)(=O)N3CCOCC3)ccc2F)c1 | inconclusive: 18.4 µM [inhibitor, single point] | – |
| Cc1ccc(NC(=O)COC(=O)c2ccc3c(c2)NC(=O)C2CCCN32)cc1 (stereo not given) | inconclusive: 20.6 µM [inhibitor, single point] | – |
| C[C@@]12C(=O)Nc3ccccc3C(=O)N1[C@H]1c3cc(Cl)ccc3OC[C@@H]1[C@@H]2c1ccccc1 | inconclusive: 29.1 µM [inhibitor, single point] | – |
| Cc1ccc(Nc2ncnc3c2cnn3C)c(C)c1 | inconclusive: 29.1 µM [inhibitor, single point] | – |
| Cc1[nH]c2ccccc2c1SCCNC(=O)c1ccccc1F | inconclusive: 20.6 µM [inhibitor, single point] | – |
| COc1ccc(NS(=O)(=O)c2ccc3c(c2)NC(=O)CCS3)cc1Cl | active: 18.4 µM | – |
| COc1ccc(S(=O)(=O)N2CCC(C(=O)Nc3nnc(C)s3)CC2)cc1OC | inconclusive: 16.4 µM [inhibitor, single point] | – |
| Cc1c(OCC(=O)C(C)(C)C)ccc2c(-c3ccccc3)cc(=O)oc12 | active: 16.4 µM | – |
| COc1ccc2[nH]c3c(N4CC(C)OC(C)C4)ncnc3c2c1 (stereo not given) | active: 14.6 µM | – |
| CC1CCN(c2ccc3c(c2)S(=O)(=O)c2cccc(C(=O)NC4CC4)c2C3=O)CC1 | inconclusive: 11.6 µM [inhibitor, partial curve] | – |
| CCN(CC)S(=O)(=O)c1cc(NC(=O)C(C)N2CCc3ccccc32)ccc1C (stereo not given) | active: 25.9 µM | – |
| CC1=C/C(=C/N(C)c2ccccc2)C(=O)S1 | active: 25.9 µM | – |
| CC(C)NC(=O)C1C(c2ccc(C(F)(F)F)cc2)=Nc2ccccc2N1C(=O)c1cc2ccccc2[nH]1 (stereo not given) | inconclusive: 18.4 µM [inhibitor, single point] | – |
| O=C(CSc1ccc(-c2ccco2)nn1)Nc1ccccc1F | – | inactive: -7.57% |
| COc1cc(-c2noc(CCCC(=O)Nc3cccnc3)n2)cc(OC)c1OC | – | inactive: -4.26% |

| SMILES | Potency | activity change, negative = growth inhibition |
| --- | --- | --- |
| CCOC(=O)C1=CN(Cc2cccc(F)c2)S(=O)(=O)N(C)C1c1ccc(F)c(Cl)c1 (stereo not given) | active: 16.4 µM | – |
| NC(=O)CNc1ncc(C(F)(F)F)cc1Cl | – | inactive: -9.96% |
| COC(=O)c1c(C(=O)OC)c(-c2ccc(Br)cc2)n2c1CS(=O)C2 (stereo not given) | – | inactive: -5.58% |
| CCN(Cc1ccncc1)Cc1ccc2c(c1)CN(C(=O)c1ccc(C)cc1)CCO2 | inconclusive: 16.4 µM [inhibitor, single point] | – |
| O=S(=O)(NCCN1CCOCC1)c1ccc(-c2ccc(S(=O)(=O)NCCN3CCOCC3)cc2)cc1 | – | inactive: -13.2% |
| O=C(NCc1ccccc1Cl)c1cc2cccc3c2n1CCS3 | inconclusive: 29.1 µM [inhibitor, single point] | – |
| COC(=O)c1cc(NC(=O)/C=C/c2ccc3c(c2)OCO3)cc(C(=O)OC)c1 | inconclusive: 8.2 µM [inhibitor, partial curve] | – |
| COc1ccccc1-c1nc(-c2ccc(C)nc2OC)no1 | inconclusive: 29.1 µM [inhibitor, single point] | – |
| S=c1[nH]nc(-c2ccc(Cl)cc2)n1CC1CCCO1 (stereo not given) | – | inactive: -20.9% |
| COc1ccc(C(=O)Nc2ccccc2)cc1NC(=O)c1cccs1 | inconclusive: 25.9 µM [inhibitor, single point] | – |
| C/C(Cn1cnc([N+](=O)[O-])n1)=N\NC(=O)c1ccccc1F | – | inactive: 3.21% |
| CNC(=O)NC(=O)COc1c(F)c(F)cc(F)c1F | inconclusive: 0.82 µM [inhibitor, full curve, poor fit] | – |
| CCOC(=O)c1cnc2ccc(OC)cc2c1Nc1ccc(N2CCN(C)CC2)cc1 | active: 20.6 µM | – |
| CCOC(=O)C1CCCN(C(=O)c2[nH]c3ccccc3c2Sc2ccc(Cl)cc2)C1 (stereo not given) | inconclusive: 29.1 µM [inhibitor, partial curve, poor fit] | – |
| COc1cc(OC)cc(-c2nc3cc(C)ccc3o2)c1 | inconclusive: 18.4 µM [inhibitor, partial curve] | – |
| C/C(=C\COc1cc(=O)[nH]c2ccccc12)CCC(O)C(C)(C)O (stereo not given) | inconclusive: 26.6 µM [inhibitor, partial curve, poor fit] and inconclusive: 23.1 µM [inhibitor, single point] | – |
| COc1ccc(Nc2nc(-c3ccc(OC)cc3)c(CCC(=O)O)s2)cc1 | – | inactive: -26.8% |
| CCN(CC)CCN=C1CCCc2ccccc2N1 | – | inconclusive: -32.4% [inhibitor] |
| COc1ccc(CCNC(=O)c2ccccc2C(=O)NCCc2ccc(OC)c(OC)c2)cc1OC | – | inactive: -20% |
| CCOCCCNCC(=O)NC1(C)C2CCC(C2)C1(C)C (stereo not given) | – | inactive: -14.3% |
| COc1ccccc1N1CCN(C2CCCN(C(=O)CCc3cnn(C)c3)C2)CC1 (stereo not given) | – | inactive: 24.8% |
| NC(=O)c1cc(S(=O)(=O)NCCCc2ccco2)cs1 | active: 8.2 µM | – |
| COCCNc1nc(Oc2cccc(F)c2)c2sccc2n1 | inconclusive: 25.9 µM [inhibitor, single point] | – |
| COc1ccccc1[C@@H]1C(c2cccc(Cl)c2)=NN(c2ccccc2)[C@H]1C(=O)N1CCOC1=O | inconclusive: 20.6 µM [inhibitor, single point] | – |
| c1ccc(N2CCN(c3ccccc3)C2c2cccs2)cc1 | – | inactive: -13.4% |

| SMILES | Potency | activity change, negative = growth inhibition |
| --- | --- | --- |
| O=C(COC(=O)C1CC(=O)N(Cc2ccccc2)C1)Nc1cccc([N+](=O)[O-])c1 (stereo not given) | – | inactive: 1.13% |
| O=C(O)Cc1ccc(NC(=S)Nc2ccc(Br)cc2Cl)cc1 | – | inactive: -9.67% |
| CCOc1ccccc1NC(=O)CN1C(=O)COc2ccc(Cl)cc21 | inconclusive: 0.0073 µM [inhibitor, full curve, poor fit] | – |
| C/C=C1\COC(C(=O)NCc2cccc(OC)c2OC)(C(F)(F)F)C=C1C=C1CCCCC1 (stereo not given) | active: 16.4 µM | – |
| CC(C)(C)C1=C(C#N)C(c2cccnc2)C(C#N)=C(N)O1 (stereo not given) | inconclusive: 23.1 µM [inhibitor, single point] | – |
| CC(C)(C)CC(C)(C)SSc1n[nH]c(=S)s1 | inconclusive: 23.1 µM [inhibitor, partial curve] | – |
| COc1ccc(C(=O)NCC(c2ccco2)S(=O)(=O)c2cccs2)cc1OC (stereo not given) | inconclusive: 20.6 µM [inhibitor, single point] | – |
| O=C(c1cccs1)N1CCC(Cc2ccccc2)CC1 | inconclusive: 29.1 µM [inhibitor, single point] | – |
| CCOC(=O)CNC(c1ccccc1)c1cc(Br)ccc1NC(C)=O (stereo not given) | inconclusive: 23.1 µM [inhibitor, single point] | – |
| COc1ccc(Cc2c(-c3ccc(C)cc3)nc3c4ccccc4ccn23)c(C)c1 | inconclusive: 20.6 µM [inhibitor, single point] | – |
| O=C(COC(=O)c1cc(Br)ccc1O)Nc1cccnc1Cl | – | inactive: 1.38% |
| O=C(Nc1ccc(S(=O)(=O)N2CCCCC2c2cccnc2)cc1)c1c(F)cccc1F (stereo not given) | inconclusive: 25.9 µM [inhibitor, single point] | – |
| O=C(COC(=O)CNC(=O)C1CCCCC1)NC1CC1 | – | inactive: -14.7% |
| CC(=O)N(CCC(c1ccccc1)c1ccco1)Cc1cccs1 (stereo not given) | inconclusive: 16.4 µM [inhibitor, single point] | – |
| O=S(=O)(c1ccc(OCC(O)CN2CCC(Cc3ccccc3)CC2)cc1)N1CCOCC1 (stereo not given) | – | inactive: -7.01% |
| Cc1ccc(C)c(-c2csc(N/N=C/c3ccco3)n2)c1 | inconclusive: 16.4 µM [inhibitor, single point] | – |
| Cc1nc2ccccn2c1C(=O)NNC(=S)Nc1ccc(Cl)cc1 | active: 18.4 µM | – |
| Cc1ccnc(NS(=O)(=O)c2ccc(NC(=O)c3nc(SC(C)C)ncc3Cl)cc2)n1 | inconclusive: 29.1 µM [inhibitor, single point] | – |
| CCCOC(=O)Cc1c(O)c2ccccc2[nH]c1=O | inconclusive: 23.1 µM [inhibitor, partial curve] | – |
| COc1ccc(C(=O)O/N=C2\CCS(=O)(=O)c3sccc32)cc1 | – | inactive: 5.26% |
| O=C1Nc2ccc(Br)cc2C1=C1CCCCC1 | active: 23.1 µM | – |
| CN1C(C(=O)NCc2cccs2)=CC(c2ccc(F)cc2)=NS1(=O)=O | inconclusive: 29.1 µM [inhibitor, single point] | – |
| COc1cccc(-c2nc(N3CCCC3)c3ccccc3n2)c1O | active: 11.6 µM | – |
| COCCN(C(=O)CCC(=O)Nc1nccs1)C(C(=O)NCCC(C)C)c1ccc(OC)cc1 (stereo not given) | – | inactive: -26.1% |
| FC(F)(F)c1cnc(Oc2cccc3ccccc23)c(Cl)c1 | inconclusive: 0.731 µM [inhibitor, full curve, poor fit] | – |
